Assay results reported in PubChem BioAssay (NCATS).
Inconclusive results, whose numbers are uncertain, are shown with a selection of clear calls. For part of these data: Potencies of inconclusive entries are doubtful fits and often do not repeat. The source made the active and inactive calls. Unless noted, calls come from the whole dose curve; as a rule, active = well fitted curve in the direction sought with a large enough effect; inconclusive = small, poorly fitted or top-dose-only effect, or another doubt; inactive = no such curve, though single readings can be large; an effect the other way counts as inactive or inconclusive.

Tests used:
[1] = system: Zika virus NS2B-NS3 protease (linked construct); assay: Primary screen NINDS Rhodamine qHTS for Zika virus inhibitors (AID 1347160); details: purified NS2B-NS3 protease, Rhodamine110 substrate fluorescence; series mostly up to 112 µM; note: potency is the fitted concentration of half-maximal effect; nearly all actives have a fitted effect of over 55% in size
Summary of the method: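 Purified NS2B-NS3 protease with the NS2B hydrophilic domain joined by a flexible linker (25 nM) in 10 mM Tris-HCl pH 8.0, 0.01% Tween 20, preincubated 15 min at RT with compound; Rhodamine110 peptide substrate 1.5 µM; fluorescence change over 15 min; 4-parameter Hill fit.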

[2] = OV-KATE Cancer Cell Toxicity qHTS against the NCATS CANVASS Library (AID 1347345); details: OV-KATE cells viability, CellTiter-Glo luminescence, 72 h; series mostly up to 38.3 µM; note: potency is the fitted concentration of half-maximal effect
Summary of the method: (§1)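 ATP content after 72 h treatment, detected by CellTiter-Glo luminescence (15min room-temperature development), reflects cell viability. Wells contained 1000 cells and received compounds at 11 concentrations.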

[3] = UWB1.289 Cancer Cell Toxicity qHTS against the NCATS CANVASS Library (AID 1347347); details: UWB1.289 viability, CellTiter-Glo luminescence, 72 h; series mostly up to 38.3 µM; note: nearly all actives have a fitted effect of over 60% in size; note: potency is the fitted concentration of half-maximal effect
Summary of the method: as §1

[4] = Panc-1005 Cancer Cell Toxicity qHTS against the NCATS CANVASS Library (AID 1347349); details: Panc-1005 viability, CellTiter-Glo luminescence, 72 h; series mostly up to 38.3 µM; note: nearly all actives have a fitted effect of over 60% in size; note: potency is the fitted concentration of half-maximal effect
Summary of the method: as §1

[5] = COV-362 Cancer Cell Toxicity qHTS against the NCATS CANVASS Library (AID 1347352); details: COV-362 viability, CellTiter-Glo luminescence, 72 h; series mostly up to 38.3 µM; note: potency is the fitted concentration of half-maximal effect
Summary of the method: (§2)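 Luminescent ATP read-out (CellTiter-Glo, 15min at room temperature) measures survival after cells face an 11-point compound series for 72 hours at 37 degrees C/5% CO2.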

[6] = A2780 Cisplatin Sensitive Ovarian Cancer Cell Toxicity qHTS against the NCATS CANVASS Library (AID 1347353); details: A2780 ovarian cancer viability, ATPLite luminescence, 72 h; series mostly up to 46.1 µM; note: potency is the fitted concentration of half-maximal effect; nearly all actives have a fitted effect of over 60% in size
Summary of the method: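 Luminescent ATP content (ATPLite, 10 min at room temperature) served as the read-out after cells had been exposed to compounds for 72 hours at 37 °C. Dosing followed an 11-point concentration series.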

[7] = UWB1.289-WTBRCA1 Cancer Cell Toxicity qHTS against the NCATS CANVASS Library (AID 1347354); details: UWB1.289-WTBRCA1 viability, CellTiter-Glo luminescence, 72 h; series mostly up to 38.3 µM; note: potency is the fitted concentration of half-maximal effect
Summary of the method: as §2

[8] = HEK-293 Cancer Cell Toxicity qHTS against the NCATS CANVASS Library (AID 1347355); details: HEK-293 viability, CellTiter-Glo luminescence, 72 h; series mostly up to 46.1 µM; note: potency is the fitted concentration of half-maximal effect; nearly all actives have a fitted effect of over 65% in size
Summary of the method: as §2

[9] = KB-3-1 Cancer Cell Toxicity qHTS against the NCATS CANVASS Library (AID 1347366); details: KB-3-1 viability, CellTiter-Glo luminescence, 72 h; series mostly up to 46.1 µM; note: potency is the fitted concentration of half-maximal effect; nearly all actives have a fitted effect of over 75% in size
Summary of the method: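 KB-3-1 cells (500/well) in DMEM with 10% FBS were exposed to compounds for 72 h at 37C. Viability was read by CellTiter-Glo luminescence.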

[10] = G06 Cancer Cell Toxicity qHTS against the NCATS CANVASS Library (AID 1347368); details: G06 dog glioma cells, viability ATP luminescence, 72 h; series mostly up to 46.1 µM; note: nearly all actives have a fitted effect of over 60% in size; note: potency is the fitted concentration of half-maximal effect
Summary of the method: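 Dog G06 glioma line, 500 cells/well; cpds pin-transferred, 11-pt; 72 hr, 37C/5% CO2; CellTiterGlo luminescence (ATP) endpoint.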

[11] = qHTS for Inflammasome Signaling Inhibitors: IL-1-beta AlphaLISA screen against the NCATS CANVASS Library (AID 1347379); details: THP-1 LPS/ATP, IL-1B AlphaLISA secretion, 16 h; series mostly up to 57.5 µM;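 note: human THP-1 cells primed with LPS then triggered with ATP; secreted IL-1B measured as AlphaLISA emission at 615 nm; lower signal means less IL-1B release which is the wanted effect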
Summary of the method: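 THP-1 cells pretreated 1 hr with compound (up to 57.5 uM final), then stimulated with LPS (250 ng/mL final) and ATP (1.25 mM final). Secreted IL-1B measured by AlphaLISA after 16 hr; glyburide as positive control.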

[12] = qHTS for Activators of p53 Stress Response Pathway screened against the NCATS CANVASS Library (AID 1347388); details: p53RE-bla HCT-116, beta-lactamase reporter, 16 h; series mostly up to 46.1 µM; note: potency is the fitted concentration of half-maximal effect
Summary of the method: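 p53RE-bla HCT-116 cells (4000/well) were plated 5 h at 37C, exposed to compounds for 16 h at 37C over an 11-point concentration series, then loaded with CCF4 for 2 h at room temperature; 460/530 nm emission ratio read.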

[13] = qHTS for inhibitors of Wild type Zika virus screened against the NCATS CANVASS Library (AID 1347396); details: Vero cells, Zika virus CPE, CellTiter-Glo, 72 h; series mostly up to 45.9 µM; note: potency is the fitted concentration of half-maximal effect
Summary of the method: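 Vero 766 (African green monkey) cells, 1000 per well, attached overnight, then compounds were added in an 11-point series before wild-type Zika virus infection. After 72 h at 37C, cell viability was read as CellTiter Glo luminescence.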

[14] = qHTS for inhibitors of Rabies Virus screened against the NCATS CANVASS Library (AID 1347402; calls by dose curve; note: potency is the fitted concentration of half-maximal effect); details: Rabies virus infection cell assay; series mostly up to 45.9 µM
[15] = HPAF-II Cancer Cell Toxicity qHTS against the NCATS CANVASS Library (AID 1347346); details: HPAF-II viability, CellTiter-Glo ATP luminescence, 72 h; series mostly up to 38.3 µM; note: potency is the fitted concentration of half-maximal effect; nearly all actives have a fitted effect of over 55% in size
Summary of the method: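 Luminescence from CellTiter-Glo, added after 72 h compound exposure and a 15 min room-temperature incubation, served as the viability readout. HPAF-II cells (1000/well) received an 11-point concentration series.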

[16] = qHTS assay for small molecule disruptors of mitochondrial membrane potential screened against the NCATS CANVASS Library (AID 1347389); details: HepG2 mitochondrial membrane potential, m-MPI red/green ratio, 1.5 h; series mostly up to 46.1 µM; note: nearly all actives have a fitted effect of over 60% in size; note: potency is the fitted concentration of half-maximal effect
Summary of the method: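 HepG2, 2,000 cells/well, attached overnight; compound 1 hr, 37C, 5% CO2; Mito-MPS dye 30 min, 37C; fluorescence 535 nm (monomer) and 590 nm (aggregate); decreased 590/535 ratio = depolarization.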

[17] = Secretion counterscreen for inhibitors of the SERCaMP assay screened against the NCATS CANVASS Library (AID 1347390); details: SH-SY5Y constitutive GLuc secretion, luminescence, 20 h; series mostly up to 76.6 µM;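 note: light from luciferase secreted into medium read as a measure of general secretion; potency is the fitted concentration of half-maximal effect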
Summary of the method: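 SH-SY5Y cells with constitutively secreted GLuc reporter, 1000 cells/well, treated 20 h at 37C with compounds at 0.001 - 77 uM final; secreted luciferase read as luminescence after coelenterazine; Brefeldin A as positive control.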

[18] = qHTS for inhibitors of ER calcium dysfunction: SERCaMP assay screened against the NCATS CANVASS Library (AID 1347393); details: SH-SY5Y GLuc-SERCaMP (Gaussia luciferase released on ER calcium loss) secretion, thapsigargin, luminescence; series mostly up to 76.6 µM; note: potency is the fitted concentration of half-maximal effect; nearly all actives have a fitted effect of over 40% in size
Summary of the method: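 qHTS in SH-SY5Y reporter cells: 16 h compound pretreatment, 4 h thapsigargin, then secreted Gaussia luciferase measured by luminescence.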

[19] = KB-8-5-11 Cancer Cell Toxicity qHTS against the NCATS CANVASS Library (AID 1347364); details: KB-8-5-11 MDR cells viability, CellTiter-Glo, 72 h; series mostly up to 46.1 µM; note: nearly all actives have a fitted effect of over 75% in size
Summary of the method: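 Plate 500 KB-8-5-11 cells per well in DMEM + 10% FBS, add compounds by pin transfer, incubate 72 hr at 37C. Add CellTiter-Glo, wait 10 minutes at room temperature, read luminescence.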

[20] = target: Nuclear receptor subfamily 1 group I member 3 (Homo sapiens) (UniProt Q14994); assay: qHTS for Constitutive Androstane Receptor (CAR) Antagonist screened against the NCATS CANVASS Library (AID 1347372); details: HepG2-hCAR-CYP2B6 luciferase, CITCO-stimulated antagonist mode; series mostly up to 46.1 µM; note: potency is the fitted concentration of half-maximal effect
Summary of the method: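 HepG2 cells stably carrying hCAR and a CYP2B6-2.2kb luciferase reporter were exposed to compounds plus 50 nM CITCO for 24hr at 37C. CAR activity was read by ONE-Glo luminescence, with viability measured first by CellTiter-Fluor.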

[21] = qHTS for Hypoxia signaling pathway (HIF-1) antagonists against the NCATS CANVASS Library (AID 1347374); details: HRE-bla ME-180 cells, HIF-1 beta-lactamase reporter, CoCl2; series mostly up to 38.3 µM
Summary of the method: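 HRE-bla ME-180 cells in medium with 0.5% dialyzed FBS received compounds (11-point series) plus CoCl2 (60 uM addition stock) for 17 hrs at 37C. Beta-lactamase activity read with CCF4 (405 nm ex, 460/530 nm em); CellTiter-Glo viability measured in same wells.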

[22] = qHTS for Hypoxia signaling pathway (HIF-1) agonists against the NCATS CANVASS Library (AID 1347375); details: HRE-bla ME-180 cells, HIF-1 beta-lactamase reporter, 17 h; series mostly up to 38.3 µM
Summary of the method: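 ME-180 HRE-bla reporter cells; 2,000/well, 0.5% dialyzed FBS; cpd added after 5 h, 17 h 37C/5% CO2; CCF4-AM 2 h RT; FRET 460/530 nm; CellTiter-Glo viability same wells, 30 min.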

Measured: Potency
Tags give direction and shape of the fitted curve.

Sequence of UniProt Q14994 (Q14994 whole entry, looked up): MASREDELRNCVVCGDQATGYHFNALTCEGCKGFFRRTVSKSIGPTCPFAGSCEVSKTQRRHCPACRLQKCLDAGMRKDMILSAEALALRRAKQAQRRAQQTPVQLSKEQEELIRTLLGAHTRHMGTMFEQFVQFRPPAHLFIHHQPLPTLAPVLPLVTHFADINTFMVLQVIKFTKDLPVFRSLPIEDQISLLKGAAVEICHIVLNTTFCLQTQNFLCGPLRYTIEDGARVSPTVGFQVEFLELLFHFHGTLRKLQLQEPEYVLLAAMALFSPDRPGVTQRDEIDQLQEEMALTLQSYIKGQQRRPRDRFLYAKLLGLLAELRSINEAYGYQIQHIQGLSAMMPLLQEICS

C/C=C/[C@@H]1[C@H]2C[C@@H](C)CC[C@@H]2C(C)=C[C@H]1C(=O)c1c(O)c(-c2ccc(O)cc2)c[nH]c1=O
inconclusive: [2] 21.1 µM [cytotoxic, single point] | [4] 14.9 µM [cytotoxic, partial curve] | [5] 29.8 µM [cytotoxic, single point] | [6] 33.2 µM [cytotoxic, single point] | [7] 29.8 µM [cytotoxic, single point] | [8] 10.5 µM [cytotoxic, full curve] | [10] 23.5 µM [cytotoxic, partial curve, poor fit] | [12] 14.8 µM [activator, partial curve, poor fit] | [13] 10.4 µM [inhibitor, full curve] | [14] 23.3 µM [inhibitor, single point]
inactive: [11]
active: [1] 22 µM | [3] 21.1 µM | [9] 18.7 µM

CO[C@@]12c3c(C)cc(O)c4c(=O)occ(c34)C(=O)[C@@H]1[C@]13COC(=O)c4c(O)cc(C)c(c41)C(=O)[C@H]2[C@@H]3OC(C)=O
inconclusive: [15] 29.8 µM [cytotoxic, single point] | [6] 33.2 µM [cytotoxic, single point] | [7] 16.7 µM [cytotoxic, partial curve, poor fit] | [17] 38.4 µM [inhibitor, partial curve, poor fit] | [18] 54.3 µM [inhibitor, partial curve, poor fit]
active: [1] 3.11 µM | [16] 16.6 µM
inactive: [4] | [10]

COC(=O)C1=C2Nc3ccccc3[C@@]23CCN2CC(C(C)=O)C1C[C@H]23 (stereo partly specified)
active: [1] 55.3 µM | [15] 9.43 µM
inactive: [2] | [19] | [16]

C=C[C@]12C=CCN3CC[C@@]4(c5ccccc5NC(=O)[C@@H]4C1)[C@@H]32
inconclusive: [1] 19.6 µM [inhibitor, partial curve, poor fit] | [10] 37.2 µM [cytotoxic, partial curve, poor fit] | [20] 23.4 µM [inhibitor, partial curve, poor fit] | [18] 27.2 µM [inhibitor, partial curve]
inactive: [3] | [21] | [22] | [13]
